Data as given in the supplement of paper PMC11417369.
± gives the standard deviation of the averaged measurements. The list shows a part of the results.

The sequences below were run on PfAP2-EXP AP2 domain (GST-tagged) (assay: gcPBM binding intensity (ln(normalized median fluorescence intensity)); higher = stronger DNA binding).
Outline: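 Alexa488 anti-GST antibody, scanned at 488 nm, detected GST-tagged P. falciparum DNA-binding domains that had been expressed in E. coli and incubated for 1 h on an Agilent 4 × 180k array. The array carried primer-extended double-stranded 36-bp intergenic genomic probes and negative controls. Binding intensity is the highest Masliner-normalised natural-log median intensity across replicate spots of either orientation of each probe.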

Sequence | gcPBM binding intensity (ln)
TATAAATTAATGACATGTACATAAAAGTATAGATGT [XGTACX_site6534] | 8.47 ± 0.2
TAAAAAATATAAATGACACACACTTAAAAACAAAGA [CACACA_site671] | 8.77 ± 0.44
AACAATTATTTATCTACACACTTTTATGTTATTTAC [CACACA_site9] | 8.77 ± 0.4
AAATATACAAAATATACACACATATTTATTTATGAT [CACACA_site2051] | 8.19 ± 0.38
TATTAAACAAATTATGCAAAAATAAATCAATATGTT [CACACA_negctrl_site171] | 8.68 ± 0.43
CAATTTATAAAGAAAACACACATATACATATATACA [CACACA_site1260] | 8.51 ± 0.35
TTAGGAAGCTCACAAAATAAAGTGAAAAGAAGAAAA [XGTACX_negctrl_site572] | 8.84 ± 0.62
ATTATTTTATAATTCACACATAAATAAAAAAAAAAT [CACACA_site5290] | 8.36 ± 0.45
AAAAGTTTTATTTAAATGAATTAATCTTTACTATAT [CACACA_negctrl_site282] | 7.98 ± 0.54
TGATTTCCAGGTTATTGTACAAAATTAATTTTCGAA [XGTACX_site2491] | 8.62 ± 0.4
ATATATATAAAACACACACACAAAAAAAATAAAGAC [CACACA_site117] | 9.34 ± 0.41
TTTTGTAGTTTATAAATAAAAGAGAATATGGTGCTT [CACACA_negctrl_site413] | 8.54 ± 0.4
TAAATATTATTTCATAGTACTTTTATTATTGATATA [XGTACX_site5566] | 8.45 ± 0.3
TAAATAAATATATATACACACATATATATATATATA [CACACA_site598] | 10.1 ± 0.36
TGTATGTATTAATGCGCACACAAAAAATAACAATAT [CACACA_site1848] | 9.04 ± 0.34
AAAAAAAAAAAAAAGAGTACACAGACGTTCAAAGGT [XGTACX_site7566] | 9.04 ± 0.56
ATAAAAAAAAAATAATGTACTTATATATATATATAT [XGTACX_site8282] | 10.1 ± 0.32
ATATATATATATAAATGTACATTGTGTGTTGTAAGA [XGTACX_site2434] | 10 ± 0.29
TATTGATTTAGAAACACACACTCGAAGATGTTTAAC [CACACA_site1129] | 8.4 ± 0.3

Sequence | gcPBM binding intensity (ln)
TTTAAAAAATGTTATATTATATAATTAAAAAAAAAA [CACACA_negctrl_site1509] | 8.21 ± 0.51
ACAGAGCTTTAAATACGTACATAATATATATTAAAT [XGTACX_site8221] | 8.71 ± 0.39
ATATAGATATATAGTAGTACTTGTTATATAAGATAA [XGTACX_site6336] | 8.38 ± 0.37
GTATATTATTTACGTTTGCACTTCATTTTATAGTAA | 9.25 ± 0.37
TTCTTCAAAAAAAATTGTACACATCTCTCAAATGTT [XGTACX_site2952] | 8.6 ± 0.21
AATGGATGAATGAATGTATGAATGAATGTATGAATG [CACACA_negctrl_site91] | 8.78 ± 0.54
TATTAATTGTGGCACCTTGTATGTTTACAATGACAT [CACACA_negctrl_site1383] | 8.84 ± 0.31
AATATCATATAAAAATGTACAAATTCTAAAACACGA [XGTACX_site1442] | 8.85 ± 0.38
TATTTTTTATAATAATGTACATATATATATATAATA [XGTACX_site2329] | 8.36 ± 0.27
TATAGATACATATACACACACACACCCACATATATA [CACACA_site3436] | 8.79 ± 0.49
ATGTATGTGTAACATAGTACTTTTTAAAAGGATATT [XGTACX_site5328] | 8.71 ± 0.38
ATCAAACCTTTTAAATGTACATTCGGAGTAAAAAAA [XGTACX_site282] | 8.48 ± 0.51
GTATTCATGCTAAAGGTGCAATAATTTTTATAATAA [GTGCAC_site9603] | 8.77 ± 0.38
AAGATAAAATTATGTAGTACAAAAAAAAATAAAAAA [XGTACX_site139] | 8.52 ± 0.49
CGCCTATAAGCTTAGACACACAAATAAATAAATATA [CACACA_site1264] | 8.19 ± 0.52
TTAAAAATGTTGGAAAGTACATATTTTTTAAAAGTA [XGTACX_site802] | 8.39 ± 0.4
TATTGGGGGTATAAACACAGTAAGTAAATAAATAAA [CACACA_negctrl_site1680] | 8.91 ± 0.22
TACCTAATTCGGTCCCGTACAAGTTAGTTTCAATTC [XGTACX_site2703] | 8.49 ± 0.4
TAATGTACTTAAACCGCACACATATAAAAAAATAAA [CACACA_site8926] | 8.47 ± 0.38

Sequence | gcPBM binding intensity (ln)
TTATTTTAATTTTTGGTGCATATTCAAGTGTACCTT [GTGCAC_site9791] | 8.51 ± 0.29
TTTTGTAAAATTAATTTATTATACATATATATTTCT [GTGCAC_negctrl_site728] | 8.2 ± 0.42
TATTTACATATTTATATACACACTTTTGCGTGTCTG [CACACA_site1110] | 8.51 ± 0.32
ATAAATAATATAAATACACACTAAAAAAGATATATA [CACACA_site6397] | 8.64 ± 0.36
AAATAAAATACAATATGATAAAATGTTATCATATAT [CACACA_negctrl_site538] | 8.35 ± 0.38
AATAAAAGGAATAATTGTACATAATGATTATACGTT [XGTACX_site7548] | 8.51 ± 0.34
GTTGTAAAAAGAAAATGTACGTAATAAATATATATA [XGTACX_site3081] | 8.93 ± 0.38
AATAAAAAAAAAAATAATATATATGTATAAATATAT [CACACA_negctrl_site1561] | 8.25 ± 0.48
AATACTCCATTGTATAGTACATATATTTTTATTTAT [XGTACX_site3641] | 8.45 ± 0.35
TATTTTTATTTATATACACACTTACATATTTATATT [CACACA_site7666] | 8.72 ± 0.33
AGAATTTATAAAAACTGTACATATTTTCCAGTTATA [XGTACX_site2848] | 8.37 ± 0.28
CATATTGTCATTCTGGTGCACTTTTTTTTTTTTTTT | 9.59 ± 0.43
ATATAATATAACAATACGCACACGTATACAAAAAAA [CACACA_site3151] | 8.63 ± 0.45
TTTTTAATTAATCTTATAAATATTTATAAATATATA [CACACA_negctrl_site1485] | 8.21 ± 0.45
ATAAAATGCGCAAACACACACAAAAAAAAGATATAT [CACACA_site6875] | 8.89 ± 0.49
AGGAAATGTTTATATACATGCATAATTAAATATAAT [TGCATGCA_site672] | 8.73 ± 0.34
ATGTAATCATTTTCGACTTTTTTTTTTTTTTTTTTT [CACACA_negctrl_site1132] | 8.65 ± 0.15
AATTTTCATTTTAGAAGTACACACAAAAAATAAAAT [XGTACX_site4426] | 8.74 ± 0.41
